Data taken from the supplement of paper PMC3334620.
In all, about 33,000 sequences were measured (“E-score (-0.5 to 0.5)”: median about -0.035, highest 2% from about 0.35 on). Some of the results follow.

These sequences were tested against T1, Pdr3 (UniProt P33200) (assay: PBM E-score (8-mer binding enrichment) (E-score (-0.5 to 0.5)); higher = stronger / more preferred TF binding; most listed sequences are background and not binding sites). Conditions: protein concentration: 200 nM; construct: GST-full length.
T1 sequence: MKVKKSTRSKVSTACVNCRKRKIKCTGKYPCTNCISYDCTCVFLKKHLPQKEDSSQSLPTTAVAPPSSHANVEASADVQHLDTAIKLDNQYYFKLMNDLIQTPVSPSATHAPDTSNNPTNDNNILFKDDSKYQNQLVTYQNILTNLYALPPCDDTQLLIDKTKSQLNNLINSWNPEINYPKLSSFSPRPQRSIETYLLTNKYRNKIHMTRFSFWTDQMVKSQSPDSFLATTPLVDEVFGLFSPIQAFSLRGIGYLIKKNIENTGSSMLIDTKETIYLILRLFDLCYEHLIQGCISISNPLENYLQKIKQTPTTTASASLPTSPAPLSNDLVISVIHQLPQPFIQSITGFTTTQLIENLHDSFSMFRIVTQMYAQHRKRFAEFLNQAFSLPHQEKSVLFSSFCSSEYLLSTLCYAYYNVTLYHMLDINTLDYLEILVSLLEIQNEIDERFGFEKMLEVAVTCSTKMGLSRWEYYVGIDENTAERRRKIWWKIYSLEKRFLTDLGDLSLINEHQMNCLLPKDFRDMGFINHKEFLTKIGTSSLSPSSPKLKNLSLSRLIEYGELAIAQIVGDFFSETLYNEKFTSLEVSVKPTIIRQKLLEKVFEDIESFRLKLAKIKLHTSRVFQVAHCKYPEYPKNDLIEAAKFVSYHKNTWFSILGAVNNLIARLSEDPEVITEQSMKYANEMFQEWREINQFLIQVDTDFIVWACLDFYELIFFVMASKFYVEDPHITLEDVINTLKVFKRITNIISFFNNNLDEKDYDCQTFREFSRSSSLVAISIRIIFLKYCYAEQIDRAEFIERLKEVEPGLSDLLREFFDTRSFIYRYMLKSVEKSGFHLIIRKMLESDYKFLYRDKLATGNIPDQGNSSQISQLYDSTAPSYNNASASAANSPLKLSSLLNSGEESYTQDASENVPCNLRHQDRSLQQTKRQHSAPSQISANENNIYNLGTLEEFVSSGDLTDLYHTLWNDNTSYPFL
Procedure, shortened: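 For each ungapped eight-base word taken together with its reverse complement, the Universal PBM Analysis Suite assigned an E-score. Binding data came from GST-tagged yeast transcription factors, applied at about 100-200 nM, on universal all-10-mer Agilent arrays made double-stranded by primer extension. Fluorescent anti-GST marked bound protein, and scans were normalised with masliner.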

Sequence	PBM E-score
GCGCCCAC	-0.0118
ACGAAACT	-0.129
CTAGTGGA	-0.233
AATGCTAC	0.0829
CGCATTCA	0.0984
GTCTCTTA	0.0669
AAGCAACG	0.0979
GAACCGCA	0.132
AACCTAGA	0.11
ATGACTGA	-0.131
GAGCTTAA	-0.0421
CTTCCACC	-0.144
CCGGTACG	0.108
AGGAGTAA	-0.0324
GCACTCGA	0.0201
CGAATAGA	-0.069
CCTTGGCG	-0.0565
ACTTATTA	-0.0477
ACCAGTTC	0.0316
CATAAGCG	-0.162
ATCTAGTA	-0.0835
GTCCGTAA	0.191
CCGGAGAA	0.385
CGTGTGAC	-0.125
GCCATCCA	0.0164

Sequence	PBM E-score
ATCAGGGA	-0.258
AAGTTGGC	-0.0418
ATGCTATG	-0.155
GCTGTTCC	0.147
ACTCTAAG	-0.173
CGATTGCA	0.0912
ACTAGTCG	-0.0491
CCCCTTAG	-0.0978
AACAACCC	0.145
CTGTCCTA	-0.293
GATTCGTA	-0.00377
CATCGAAG	-0.0311
AATTCTGG	-0.128
ATTCGTGC	0.0636
ACTCATTC	0.198
GTATATTA	-0.208
CGCTATCC	0.158
AGGTCTAC	-0.148
TCTCCAAA	-0.124
AAAGGCTT	-0.24
AATGTTGA	-0.0567
TGATAGAA	-0.143
GATTCTTA	-0.0304
AAGTGCTG	-0.172
AATCGATC	0.00169

Sequence	PBM E-score
GCAAGTAC	-0.141
GAAAGGGC	-0.136
AAGACAAG	0.0204
CTTGTCAC	-0.089
CGTGGGTA	0.0427
CTGAGTCC	-0.146
AGATGTGG	-0.207
AGCATGAC	-0.13
CCTAAACA	-0.15
ATATCCAA	0.0105
CCGAGCGC	0.251
AATTGTTC	0.16
TAGTCTAA	-0.193
TTCTCCAA	-0.172
GCAAGGCC	0.0202
CGCTAACG	0.0263
GGTTAAAA	-0.0608
CTACTACC	-0.00339
TGCCTTAA	-0.258
ACACGTAA	-0.169
CACACTGA	-0.223
ATATAGGG	-0.118
GTCGCCCA	-0.0984
GTGATGTA	0.0167
GGGAGACC	-0.0244

Sequence	PBM E-score
AACCCGCC	0.165
CTCACGCC	0.0465
GTACAGAA	-0.00734
CAAGATCC	0.114
GAGAACTA	-0.163
CACCCAAG	-0.071
TCATAGCA	-0.223
CCGACGAG	0.169
CGGGGCAG	0.224
CTTGAATC	-0.17
CTGGAGGA	-0.248
AACCTAGG	0.0108
GCCGGGAA	0.304
AAACGACG	0.0464
CAGCATCC	0.0985
CCGAGGGC	0.298
GATCCTGA	0.0865
TACCCCCA	-0.269
AGCCTTAC	-0.374
CGTGCTGA	0.00926
ACCGGTCC	0.244
AGCAGACC	-0.132
AAGTCGTG	-0.117
GACTAACA	0.00927
CCTCTGTA	-0.249

Sequence	PBM E-score
GAGGTAGC	-0.0805
ACAAAACG	0.236
AATAGTGT	0.204
CGGTCACA	0.0266
CCTATGCC	-0.11
CACGGCCA	0.0585
TGCGGTAA	0.0177
GGAGGGGA	0.041
GCCAACAA	-0.189
CCAGCAAG	-0.171
CATTCGGG	0.266
AGCAAGTG	-0.203
ACTAGCTC	-0.0778
CCGTCTCA	0.042
GCGCGTCA	-0.0218
AATTTATA	0.0667
CATGAAGG	0.0341
ATTGGAGG	-0.103
CCGTCGCA	0.297
CAATACGG	0.0848
AAGGCCTT	-0.289
CGACTACC	-0.188
ATGCGACC	0.281
GCATCCAA	-0.132
CTTGTTAC	-0.0306

Sequence	PBM E-score
ATGGTTAA	-0.22
CATCTTAG	-0.116
GTTTACCA	-0.134
ATCGATAG	-0.138
ACTCCTGC	-0.0523
AAGCAGAG	-0.193
ATCTCGGG	0.278
GCAGACCA	-0.132
ACGCGACA	0.0983
GCACTTTA	-0.0932
ACGCGACT	-0.127
GCGTGGTA	-0.0288
ACGAGGAA	0.133
ATCACCTC	0.0188
GTAGGGGA	-0.0268
ATGCCAAT	-0.0512
AGCGTCCC	0.0713
GAATAAAC	0.0441
AAGGGCAT	-0.225
AGTCCGAT	0.225
AATCACAA	-0.159
GTCTCAAC	-0.0293
ACTGGTCA	0.0716
GATTATAA	0.171
AGCGGTAC	-0.0325

Sequence	PBM E-score
AAAGGATA	-0.0682
ATTGAGAG	0.0426
GCAGAGAA	-0.0205
GCCGGTCC	0.285
CGGCTCAC	0.12
CCGGGGAA	0.356
CGCGAGCC	0.124
AATGGAAA	0.103
CAGTAGGG	-0.191
ATAGTCGG	0.111
GGCGCGGA	0.352
ACGTCCCC	-0.0744
AGTGTGAC	-0.336
ATCCTAGA	-0.0578
AGGGTACG	-0.139
ACAGTAGA	-0.155
CAGTACAG	-0.134
AATCCCCT	-0.031
AATTAGTC	0.0765
GCCCAACA	-0.179
CAGGCTTC	0.0398
CAGTGCGA	-0.0825
CCGAAGCC	0.245
AGCTGATG	0.119
CCGGACTC	0.363

Sequence	PBM E-score
CACGGTTA	0.149
CCATAGAA	-0.0721
CAAATTCC	0.19
CAAAGGGA	-0.272
TGCGTTAA	-0.159
ACGGCGGA	0.314
AGTACCAA	0.0394
CCGGGCCC	0.345
AGCACGTC	0.0205
ATACACAC	-0.183
AGTCGTGG	-0.293
GAACAAAC	0.214
AACATCAC	-0.204
GGAATCGA	0.229
GTATCACA	-0.0329
TTACAGAA	-0.32
GTAGAAAA	-0.141
TGATCTAA	-0.0316
AGGCTTCC	0.159
CCCGTGAA	0.0247
GAATCGCC	0.0259
TTGGTAAA	-0.255
CGGATGTA	0.256
AGGAGGCA	-0.127
CTTGACTC	-0.133

Sequence	PBM E-score
GCTGTGGA	0.0315
ACAGACGG	-0.00171
AAATGGCC	-0.0932
ACTTACGG	0.166
ATGAGGCC	0.00617
AGCCGATA	0.0109
GGTCTGAA	0.0448
ACATTGCG	0.0294
AACACCCA	-0.0239
GCGCTGTA	-0.048
GCACGAAA	-0.00181
ATTCGTGA	-0.175
GAGTGCCA	-0.181
ATAGAGAT	-0.124
GCAGCCGA	0.166
ATCATATC	0.145
GACAATGA	-0.141
GCCAAGTA	-0.29
CGCTACTA	0.0942
